Measured values: PubChem BioAssay AID686979 (National Center for Advancing Translational Sciences (NCATS), 2013)
The whole screen tested about 420,000 compounds, of which about 50,000 (12%) were called active. The shares of active, inactive and inconclusive entries below differ from those in the screen. Calls follow the shape of the dose curve; as a rule, active = well fitted inhibition curve with a large enough effect; inconclusive = small, poorly fitted or top-dose-only effect; inactive = flat fitted curve, though single readings scatter. Potencies of inconclusive entries are left out as doubtful fits.

assay: qHTS for Inhibitors of human tyrosyl-DNA phosphodiesterase 1 (TDP1): qHTS in cells in presence of CPT; settings: chicken DT40 Tdp1-/-;hTDP1 cells + 20 nM CPT, ATP luminescence, 48 h; activity change, negative = growth inhibition: at 46.2 µM (top of the series) unless noted; also: nearly all actives have a fitted effect of over 55% in size
How it was run: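 Chicken DT40 Tdp1-/- cells stably complemented with human TDP1 were seeded at 400 cells/well in medium containing 20 nM camptothecin, exposed to pin-transferred compounds, and grown at 37 °C for at least 48 hr. Viability was read as ATP luminescence.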
% is scaled to controls: 0 for no effect and ±100 for the full control effect; potency is read from the fitted curve at half-maximal effect; tags tell the direction and shape of the fitted curve.

Q: With `FC(F)(F)c1ccc(C2=Nc3ccccc3NC(c3cccs3)=N2)cc1` as the molecule, how does the Potency read?
A: inactive

Q: With `C[C@@]1([C@@H](NC(=O)c2cccs2)c2ccc(-c3ccccc3)cc2)C[C@H]1C1CCCCC1` as the molecule, how does the Potency read?
A: inconclusive [inhibitor, single point]

Q: For `CCOC(=O)c1sc(Nc2ccccc2Cl)nc1C`, which Potency is on record?
A: inconclusive [inhibitor, single point]

Q: With `O=C(NCCc1ccccn1)c1ccc(COc2ccccc2)o1` as the molecule, how does the Potency read?
A: inconclusive [inhibitor, single point]

Q: For `COc1cccc(C(=O)NC(c2ccc(Cl)cc2)c2cc(Cl)c3cccnc3c2O)c1` (stereo not drawn), which Potency is on record?
A: active: 8.2 µM

Q: With `COc1cc2nc(N3CCN(C(=O)[C@H]4CCCO4)CC3)nc(N)c2cc1OC` as the molecule, how does the Potency read?
A: inactive

Q: With `COc1ccc(Cl)cc1NC(=O)CCN1C(=O)C2C3C=CC(C4CC34)C2C1=O` (stereo not drawn) as the molecule, how does the Potency read?
A: inactive

Q: Which Potency does the source give for `Cc1cc2c(c(-c3cnccn3)c1)OC(CNC(=O)c1cc(C(C)C)[nH]n1)C2` (stereo not drawn) here?
A: inactive

Q: For `Cc1nc(Cn2c3ccc(NC(=S)NC4CCCCC4)cc3c(=O)n2C)cs1`, which Potency is on record?
A: inconclusive [inhibitor, partial curve]

Q: For `O=C(Nc1cccs1)OCCN1CCN(Cc2ccccc2)CCC1=O`, which Potency is on record?
A: inactive

Q: Which Potency does the source give for `COc1ccc(Nc2ncc(C(=O)Nc3cc(C)ccc3OC)c3ccccc23)cc1` here?
A: inconclusive [inhibitor, single point]

Q: Which Potency does the source give for `COc1ccc(N2CCN(c3oc(COc4ccc(Cl)cc4)nc3C#N)CC2)cc1` here?
A: inconclusive [inhibitor, single point]

Q: With `CC1CCCCN1S(=O)(=O)Cc1ccccc1Cl` (stereo not drawn) as the molecule, how does the Potency read?
A: inactive

Q: With `O=C(NCc1cccs1)C(=O)NCC1OCCCN1S(=O)(=O)c1ccccc1` (stereo not drawn) as the molecule, how does the Potency read?
A: inactive

Q: With `COC(=O)c1[nH]c2cccc(OC)c2c1NC(=O)CN1CCOCC1` as the molecule, how does the Potency read?
A: inactive

Q: For `CC(=O)Oc1cc(OC(C)=O)c2c(=O)cc(-c3ccc(OC(C)=O)c(OC(C)=O)c3)oc2c1`, which Potency is on record?
A: inconclusive [inhibitor, single point]

Q: For `COc1ccc(N(C(=O)CNC(=O)c2ccco2)C(C(=O)NC2CCCCC2)c2ccco2)cc1` (stereo not drawn), which Potency is on record?
A: inactive

Q: Which Potency does the source give for `O=C(COc1ccc(F)cc1)Nc1cccc(OCc2cc(=O)n3ccccc3n2)c1` here?
A: inconclusive [inhibitor, single point]

Q: With `CCOc1ccc(N=C2NN=C(c3cc(C)n(CC4CCCO4)c3C)CS2)cc1` (stereo not drawn) as the molecule, how does the Potency read?
A: inconclusive [inhibitor, single point]

Q: With `CC(C)CCNC(=O)CN(Cc1ccco1)C(=O)c1snc(C(N)=O)c1N` as the molecule, how does the Potency read?
A: inactive

Q: Which Potency does the source give for `Cc1nnc(SCc2nc3sc4c(c3c(=O)[nH]2)CCCC4)n(N)c1=O` here?
A: inconclusive [inhibitor, single point]

Q: For `O=C(c1ccc2c(=O)n3c(nc2c1)CCCCC3)N1CCN(c2ccc(F)cc2)CC1`, which Potency is on record?
A: inactive

Q: Which Potency does the source give for `O=C(c1ccco1)N1CCN(Cc2cc(=O)c(OCc3ccc(F)cc3)co2)CC1` here?
A: inconclusive [inhibitor, partial curve, poor fit]

Q: Which Potency does the source give for `COc1ccc(NC(=O)C2CC(c3cccc(Br)c3)=NO2)cc1OC` (stereo not drawn) here?
A: inconclusive [inhibitor, single point]

Q: With `COc1ccc(NC(=O)c2cc(-c3sc(NC(=O)c4ccccc4)nc3C)n(CCO)n2)cc1` as the molecule, how does the Potency read?
A: inconclusive [inhibitor, single point]

Q: With `Cc1nc(NC(=O)CSc2nc3cccnc3n2C2CCCCC2)sc1C` as the molecule, how does the Potency read?
A: inconclusive [inhibitor, single point]

Q: For `COC(=O)C1=C(C)N(Cc2ccccc2)C(=NCCCCO)N[C@H]1c1ccccc1`, which Potency is on record?
A: inconclusive [inhibitor, single point]

Q: With `Cn1c(C(=O)NCc2ccc(Cl)cc2)cc2c(=O)n(C)c3ccccc3c21` as the molecule, how does the Potency read?
A: inactive

Q: Which Potency does the source give for `CC(=O)c1c(C)[nH]c(C(=O)N2CCN(c3ccc(F)cc3)CC2)c1C` here?
A: active: 14.1 µM

Q: For `COc1ccc(NC(=O)CCc2c(C)nc3c(-c4ccccc4)c(C)nn3c2C)cc1Cl`, which Potency is on record?
A: inconclusive [inhibitor, single point]

Q: With `Cc1ccc(OCC(=O)NN=C2c3ccccc3-c3ccccc32)cc1` as the molecule, how does the Potency read?
A: inconclusive [inhibitor, single point]

Q: With `Cc1ccc2c(c1)c1c(c(=O)n(-c3ccccc3C)c(=O)n1Cc1ccccc1F)n2C` as the molecule, how does the Potency read?
A: active: 14.6 µM

Q: With `CN1CCN(CCCN(Cc2cccs2)C(=S)Nc2ccc(Cl)cc2)CC1` as the molecule, how does the Potency read?
A: inconclusive [inhibitor, partial curve]

Q: For `NS(=O)(=O)c1ccc(N2N=C(c3ccccc3)CC2c2ccc(F)cc2)cc1` (stereo not drawn), which Potency is on record?
A: inconclusive [inhibitor, single point]

Q: With `O=C(NC(=S)Nc1nc2ccccc2s1)c1ccco1` as the molecule, how does the Potency read?
A: inconclusive [inhibitor, single point]

Q: With `COc1cccc(Nc2nc(C(N)CCc3ccccc3)cs2)n1` (stereo not drawn) as the molecule, how does the Potency read?
A: active: 18.4 µM

Q: For `N#CC1=C(S)N(c2ccccc2)C(c2ccc(-c3ccccc3Cl)o2)NC1=O` (stereo not drawn), which Potency is on record?
A: inconclusive [inhibitor, single point]

Q: For `Fc1ccc(-n2ncc3c(Nc4ccc(Oc5ccccc5)cc4)ncnc32)cc1`, which Potency is on record?
A: inconclusive [inhibitor, single point]

Q: With `O=C(Nc1ccncc1)c1cccc(S(=O)(=O)N2CCN(c3ccc(F)cc3)CC2)c1` as the molecule, how does the Potency read?
A: active: 20.6 µM

Q: With `CCc1nc2c(OCC3COc4ccccc4O3)cccn2c1N(C)C(=O)c1cccc(OC)c1` (stereo not drawn) as the molecule, how does the Potency read?
A: inconclusive [inhibitor, single point]

Q: With `COC(=O)CC1=C(C(=O)OC)C(c2ccc3c(c2Cl)OCO3)C(C#N)=C(N)O1` (stereo not drawn) as the molecule, how does the activity change, negative = growth inhibition read?
A: inconclusive: -33.9% [inhibitor]

Q: Which Potency does the source give for `CSc1ccc(CN(C)CCc2ccccn2)cc1` here?
A: inactive

Q: With `COc1ccc(-c2noc(C(C)NC(=O)c3ccco3)n2)cc1` (stereo not drawn) as the molecule, how does the Potency read?
A: active: 18.4 µM

Q: For `CCC(=O)Nc1ccc(Cl)c(NC(=O)c2ccc([N+](=O)[O-])cc2)c1`, which Potency is on record?
A: inconclusive [inhibitor, single point]

Q: For `COc1ccc(NC(=O)C2CCN(c3ncnc4c3nc3n4CCCCC3)CC2)cc1Cl`, which Potency is on record?
A: inconclusive [inhibitor, partial curve]

Q: For `CCN1CCN(S(=O)(=O)c2ccc(Cl)c(C(=O)NCCOc3ccc(C)cc3)c2)CC1`, which Potency is on record?
A: inconclusive [inhibitor, single point]

Q: Which Potency does the source give for `O=C(C[n+]1cc(Br)cc(Br)c1)c1ccc2c(c1)CCCC2` here?
A: inconclusive [inhibitor, single point]

Q: For `O=C(O)CCCCn1c(SCc2cc(=O)n3cc(Cl)ccc3n2)nc2ccsc2c1=O`, which Potency is on record?
A: inconclusive [inhibitor, partial curve, poor fit]

Q: Which Potency does the source give for `COc1cc(C(c2c(C)[nH][nH]c2=O)c2c(C)[nH][nH]c2=O)ccc1OC(=O)c1ccccc1F` here?
A: inactive

Q: For `CCCCC(=O)Nc1sc(C(=O)N(CC)CC)c(C)c1C(=O)OC`, which Potency is on record?
A: inconclusive [inhibitor, single point]

Q: For `COc1cc(C)ccc1Oc1ccc([N+](=O)[O-])cc1`, which Potency is on record?
A: inconclusive [inhibitor, full curve, poor fit]

Q: With `CN(C)CCC(Oc1ccccc1OCc1ccccc1)c1ccccc1` (stereo not drawn) as the molecule, how does the Potency read?
A: inconclusive [inhibitor, single point]

Q: With `C(=N\c1ncnc2sccc12)/NOCc1ccccc1` as the molecule, how does the Potency read?
A: active: 23.1 µM

Q: With `CS(=O)(=O)c1ccccc1C(=O)Nc1cccc(-c2nc3ccccc3o2)c1` as the molecule, how does the Potency read?
A: inconclusive [inhibitor, single point]

Q: Which Potency does the source give for `CC(=O)Nc1cccc(-c2nnc(SCC(=O)c3cc([N+](=O)[O-])ccc3Br)o2)c1` here?
A: active: 5.17 µM

Q: Which Potency does the source give for `O=C(CNC(=O)c1ccccc1F)N/N=C/c1cc(Br)ccc1OCc1ccccc1` here?
A: inconclusive [inhibitor, single point]

Q: For `CCOC(=O)N1CCN(C(=S)NC(=O)c2cc(Br)ccc2Cl)CC1`, which Potency is on record?
A: inconclusive [inhibitor, single point]

Q: With `CCOc1ccc(S(=O)(=O)Nc2cnc3ccccc3c2)cc1` as the molecule, how does the Potency read?
A: active: 18.4 µM

Q: With `O=C(CSc1nnc(CNC(=O)c2ccccc2F)o1)NC1CCCC1` as the molecule, how does the Potency read?
A: inactive

Q: Which Potency does the source give for `O=C(COC(=O)c1ccc(Cl)nc1)Nc1ccc2c(c1)OCO2` here?
A: inactive

Q: Which Potency does the source give for `Cc1ccc(C(=O)N2CCN(c3ccc(NC(=O)CSc4ccc(Cl)cc4)cc3)CC2)cc1` here?
A: inconclusive [inhibitor, full curve]

Q: For `COc1cccc2sc(Nc3nnc(-c4ccccc4Cl)o3)nc12`, which Potency is on record?
A: active: 1.64 µM

Q: For `Cc1cc(NC(=O)CC(CN(C)S(=O)(=O)c2ccccc2)c2ccccc2)no1` (stereo not drawn), which Potency is on record?
A: inconclusive [inhibitor, partial curve]

Q: For `CC(=O)c1cccc(Nc2c3c(nc4nc(-c5cccs5)nn24)CCCC3)c1`, which Potency is on record?
A: inconclusive [inhibitor, single point]

Q: For `Oc1ccccc1N1CCN(C(=S)NCCc2ccccc2)CC1`, which Potency is on record?
A: inconclusive [inhibitor, single point]

Q: For `Cc1nn(Cc2c(F)c(F)c(F)c(F)c2F)c(C)c1NC(=O)c1c([N+](=O)[O-])c(C)nn1C`, which Potency is on record?
A: inconclusive [inhibitor, partial curve, poor fit]

Q: Which Potency does the source give for `COc1ccc(CNC(=O)CC2C[C@H](C(=O)N(C(C)C)C(C)C)[C@@]3(C)c4[nH]c5ccccc5c4CCN3C2=O)cc1OC` (stereo partly drawn) here?
A: inconclusive [inhibitor, single point]

Q: Which Potency does the source give for `Cc1[nH]c2ccccc2c1/C=N/NC(=O)c1cccs1` here?
A: inconclusive [inhibitor, single point]
